Test results as given in PMC4336329 (PLoS ONE, 2015).
Among all 310,000 compounds or so, about 14,000 (4.5%) showed an effect of 50% or more. Effects have a minus sign here. The list shows a part of the results.

target: human ether-à-go-go-related gene (hERG) potassium channel (human, UniProt Q12809); experiment: primary screen, population patch clamp on CHO cells stably expressing hERG
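Also: peak tail current of the secondary pulse compared with the same well before compound.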

human ether-à-go-go-related gene (hERG) potassium channel, sequence (Q12809 whole entry, looked up): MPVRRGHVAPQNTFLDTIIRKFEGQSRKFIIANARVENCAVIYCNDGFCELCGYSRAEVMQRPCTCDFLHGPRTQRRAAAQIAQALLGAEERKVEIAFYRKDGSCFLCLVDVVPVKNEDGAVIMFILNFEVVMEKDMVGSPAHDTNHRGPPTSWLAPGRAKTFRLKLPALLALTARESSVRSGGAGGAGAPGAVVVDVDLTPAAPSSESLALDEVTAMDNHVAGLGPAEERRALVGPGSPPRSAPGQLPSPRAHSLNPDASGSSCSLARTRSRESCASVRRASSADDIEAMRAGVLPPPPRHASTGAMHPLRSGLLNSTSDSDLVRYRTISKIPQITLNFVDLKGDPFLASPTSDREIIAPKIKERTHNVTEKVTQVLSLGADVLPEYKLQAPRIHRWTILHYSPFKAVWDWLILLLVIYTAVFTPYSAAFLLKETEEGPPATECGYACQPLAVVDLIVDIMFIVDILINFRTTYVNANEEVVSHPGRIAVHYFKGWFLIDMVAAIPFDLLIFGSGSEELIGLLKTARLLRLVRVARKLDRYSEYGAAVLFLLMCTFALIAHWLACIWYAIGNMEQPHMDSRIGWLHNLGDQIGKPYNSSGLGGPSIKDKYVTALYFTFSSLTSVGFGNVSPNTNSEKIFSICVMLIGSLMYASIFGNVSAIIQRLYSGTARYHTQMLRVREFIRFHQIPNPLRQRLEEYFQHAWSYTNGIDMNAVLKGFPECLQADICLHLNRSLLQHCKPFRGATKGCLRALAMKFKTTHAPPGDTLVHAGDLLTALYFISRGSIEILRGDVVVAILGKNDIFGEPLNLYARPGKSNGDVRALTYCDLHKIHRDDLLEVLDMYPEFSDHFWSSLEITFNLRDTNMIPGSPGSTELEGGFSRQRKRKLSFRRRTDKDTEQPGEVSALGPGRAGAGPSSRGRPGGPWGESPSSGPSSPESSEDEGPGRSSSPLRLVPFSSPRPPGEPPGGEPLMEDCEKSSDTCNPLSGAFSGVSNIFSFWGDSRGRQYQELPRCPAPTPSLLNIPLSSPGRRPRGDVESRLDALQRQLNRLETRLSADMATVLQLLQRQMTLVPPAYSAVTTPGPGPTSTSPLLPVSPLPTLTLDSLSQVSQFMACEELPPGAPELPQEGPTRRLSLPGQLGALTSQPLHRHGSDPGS

SMILES	hERG current change (%, negative = inhibition) at 10uM
CCOc1cc2[nH]c(=S)n(CCCN3CCCC3=O)c(=O)c2cc1OCC	-23.5%
COC(=O)c1c(-c2ccccc2)csc1NC(=O)c1c(-c2ccccc2)noc1C	-12.8%
Cc1coc2c1c(C)cc1oc(=O)c(CC(=O)NCCC(=O)O)c(C)c12	20%
COCc1cc(C)nc(N)c1C#N	13.8%
Oc1ccc(/C=N/N2CCN(C3c4ccccc4-c4ccccc43)CC2)c(O)c1	11%
O=C(COC(=O)c1ccc([N+](=O)[O-])cc1Cl)NC(=O)c1ccccc1	6.87%
O=C(CN1CCCC1)Nc1cc(F)ccc1F	-13.3%
CCC(C(=O)OCC(=O)Nc1cccc(S(=O)(=O)NC2=NCCCCC2)c1)c1ccccc1 (stereo not drawn)	1.92%
CCC(OC(=O)c1ccco1)C(=O)NC1CCCC1 (stereo not drawn)	11.1%
CCC1(OC(=O)c2ccccc2)CC(C)N(C)CC1C.Cl (stereo not drawn)	-7.85%
C[C@]12CC[C@@H](O)C[C@H]1CC[C@@H]1[C@@H]2CC[C@]2(C)C(=O)CC[C@@H]12	-3.43%
COc1ccccc1OCCCC(=O)NC(C)c1ccccc1 (stereo not drawn)	-0.417%
CC(C)CCNC(=O)CCc1nnc2n(CCCOC(C)C)c(=O)c3ccccc3n12	-26.7%
O=C(NNc1ncnc2ccccc12)c1cccc(Cl)c1	-17.1%
COc1cc(NC(=S)NCc2ccc(S(N)(=O)=O)cc2)c(OC)cc1Cl	-2.4%
CC(=O)C1C(c2ccc(Cl)cc2)c2c(n[nH]c2C)CC1(C)O (stereo not drawn)	33.4%
CC(C)n1cc(C(=O)N(CC(=O)NC2CCCC2)Cc2ccccc2)cn1	-0.857%
CN(CC(=O)NCCCc1ccccc1)S(=O)(=O)c1ccc(Br)cc1	-7.88%
CCOc1ccccc1N1CCN(C(=O)c2ccccc2OCc2c(C)noc2C)CC1	-12.4%
COC(=O)Nc1ccc(S(=O)(=O)N2CCC(C)CC2)cc1	-7.74%
Cc1ccccc1S(=O)Cc1ccc(C(=O)NC2CCN(Cc3ccccc3)CC2)o1 (stereo not drawn)	-10.6%
CCCc1cc(=O)[nH]c(SCC(=O)Nc2ccccc2C#N)n1	14.5%
COc1ccc(C(=O)NC23CC4CC(CC(C4)C2)C3)cc1	12.2%

SMILES	hERG current change (%, negative = inhibition) at 10uM
Cc1cc(C)nc(NC(=O)c2ccccc2O)n1	18.3%
Cn1nnnc1SCSc1nnnn1C	8.33%
Cn1c(SCC(=O)c2ccc(F)cc2)nnc1-c1ccccn1	2.15%
CC1CN(S(=O)(=O)c2ccccc2)CC(C)O1 (stereo not drawn)	-8.25%
COc1cc2c(cc1OC)C(Nc1ccccc1)=NC(C)(C)C2	-19%
Cc1nc(NC(=O)CSc2nnnn2Cc2ccccc2)sc1C	-4.31%
COC(=O)c1cc(=O)[nH]c(SCc2cccc(C)c2)n1	17.2%
O=C(CSc1nc2ccccc2o1)Nc1ccccc1	-1.11%
O=C(NNC1=NCCC1)c1cccc(S(=O)(=O)N2CCCC2)c1	16.6%
COc1cccc(C(C(=O)NCc2ccco2)N(C(=O)Cn2nnc3ccccc32)C2CC2)c1OC (stereo not drawn)	-5.46%
CC(=O)/C(N)=N/Nc1cccc(Cl)c1	-0.164%
COc1ccc(/C=C2\SC(N)=NC2=O)cc1Cl	9.84%
COc1cc(OC)cc(C(=O)NC(c2ccccc2)c2ccccc2)c1	9.34%
Cc1cc(=O)c2n(Cc3ccccc3Cl)nc[n+]2[nH]1.[Cl-]	-6.94%
Cc1ccc(C(=O)n2cnnc2N)cc1	-1.12%
COc1ccc(C(=O)Nc2nc(-c3cccs3)cs2)cc1	-9.51%
CC(C)C/C(=N/O)c1cn(C)c2ccccc12	3.21%
O=C(CCNC(=O)c1ccc([N+](=O)[O-])cc1)Nc1ccccc1N1CCCCC1	-34.9%
CN(CCCNC(=O)C1CCC(=O)N1Cc1ccccc1Cl)c1ccccc1 (stereo not drawn)	18%
O=C(NC(=S)Nc1ccccc1N1CCCCC1)c1ccco1	-10.6%
Cc1ccc(S(=O)(=O)NCC(C)NS(=O)(=O)c2ccccc2[N+](=O)[O-])cc1 (stereo not drawn)	16.6%
Cc1ccc2nc(C)c(C(=O)N/N=C/c3cccs3)n2c1	-9.33%
Cc1ccc(Cl)cc1N1CCN(Cc2nc3c(c(=O)[nH]c(=O)n3C)n2CCc2ccccc2)CC1	6.63%

SMILES	hERG current change (%, negative = inhibition) at 10uM
Cc1[nH]c2ccc(CNS(=O)(=O)c3ccc(S(=O)(=O)N4CCOCC4)cc3)cc2c1C	-13.3%
COC(=O)c1cc(C(=O)N2CCN(c3cccc(Cl)c3)CC2)cc([N+](=O)[O-])c1	-59%
CCCCc1nc2sc3c(c2c(=O)[nH]1)CC(C)(C)OC3	8.11%
O=C1CC(NCCc2ccccc2)C(=O)N1CCc1ccccc1 (stereo not drawn)	-2.44%
COc1ccc(/C(C)=N/NC(=O)c2ccccc2OCc2ccccc2)c(OC)c1	11.2%
COc1cccc(N2C(=O)c3ccncc3C2=O)c1	22%
O=C(O)Cc1ccc(NC(=O)Nc2ccc(Br)cc2)cc1	12.9%
COc1cc2c(cc1OC)C(C)N(C(=O)c1cc3c(C)cc(C)cc3[nH]1)CC2 (stereo not drawn)	5.78%
COc1ccc(-c2csc(Nc3cccc(C)n3)n2)cc1	13.2%
COc1cc(NC(=O)COc2c(C)cc(C)cc2[N+](=O)[O-])c(OC)cc1Cl	-0.303%
COc1cc(OC)c(S(=O)(=O)Nc2ccccc2C(=O)O)cc1S(=O)(=O)Nc1ccccc1C(=O)O	-20.2%
Cc1ccccc1OCC(=O)Nc1sc(C(=O)Nc2cccc(C)c2C)c(C)c1C#N	5.47%
CCOC(=O)C1=NNC(C(=O)c2ccccc2)C1c1ccc(C)cc1 (stereo not drawn)	-16.3%
Cc1c(N=C/C=C2\N(C)c3ccccc3C2(C)C)c(=O)n(-c2ccccc2)n1C	-53.7%
Cc1cccc(CC(=O)NC2CCCCCC2)c1	3.96%
O=C(/C=C/c1cccs1)N1CCN(c2ccccc2F)CC1	-36.1%
CCOC(=O)C1=C(COC(=O)c2ccco2)NC(=O)NC1CC (stereo not drawn)	8.95%
O=C(Nc1ccn(-c2ccccc2)n1)c1ccc(Cl)cc1	-8.56%
CN(C)CCCN(C(=O)CCc1ccccc1)c1nc2ccc(F)cc2s1.Cl	-70.1%
CCSc1ncc(Cl)c(C(=O)Nc2ccc(S(=O)(=O)Nc3onc(C)c3C)cc2)n1	4.3%
COc1ccccc1CN1C(=O)c2ccccc2C1C(=O)NC1CCC(C)CC1 (stereo not drawn)	-12.2%
CCC(=O)N1CCN(c2ccc(NC(=O)c3ccco3)cc2)CC1	9.27%
O=c1c(Cc2ccccc2O)c(O)nc2n1CCCS2	7.27%

SMILES	hERG current change (%, negative = inhibition) at 10uM
Cn1c(=O)n(CC(N)=O)c(=O)c2c1nc1n2CCCN1Cc1ccccc1	14.8%
Cc1ccnc(N2C(=O)c3ccccc3C2Nc2cccc(C)c2C)c1 (stereo not drawn)	13.1%
C=CCNC(=O)C12CC3(C)CC(C)(CC(C)(C3)C1)C2	-11.8%
Cc1cc(NC(=O)COC(=O)c2n[nH]c3ccccc23)no1	8.9%
Cc1cc(C)c(C#N)c(SCc2nc3ccccc3c(=O)[nH]2)n1	9.18%
CCOc1ccc(CC(C(=O)NN)C(=O)NN)cc1CN(C)C	10.2%
C=CCNc1nnnc2c1sc1nc(N3CCOCC3)c3c(c12)CCCC3	9.26%
CC(C)(C)c1cc(NC(=O)Nc2ccc(Cl)cc2Cl)no1	16.4%
COc1ccc(C2C(C#N)=C(N)OC3=C2C(=O)CCC3)cc1Cn1cc([N+](=O)[O-])cn1 (stereo not drawn)	-10%
CCN1C(=O)/C(=C\N(C(C)=O)c2ccccc2)OC1=S	3.96%
O=C(O)CSCC(=O)N1N=C2/C(=C/c3ccccc3)CCCC2C1c1ccccc1 (stereo not drawn)	16.4%
COC(=O)c1ccccc1Sc1c(/C=N/OCc2ccc(Cl)cc2)c(C(F)(F)F)nn1C	13.4%
Cc1cc(-c2ccc(C)c(S(=O)(=O)NCc3cccc(Br)c3)c2)on1	-22.2%
Cc1ccc(CN(C)C(=O)CN2C(=O)NC(c3ccccc3)(c3ccccc3)C2=O)c(C)c1	-14.1%
CC1(c2ccc(OC(F)F)cc2)NC(=O)N(CC(=O)Nc2ccc3[nH]c(=O)[nH]c3c2)C1=O (stereo not drawn)	17.2%
O=[N+]([O-])c1cc(/C=N/Nc2nc3ccccc3[nH]2)c(O)cc1O	7.86%
CCC(C)c1ccccc1NC(=S)NC(=O)c1ccco1 (stereo not drawn)	-8.68%
O=C(O)/C=C/C(=O)Nc1ccc(OC(F)(F)Cl)cc1	1.88%
O=C(COC(=O)C12CC3CC(CC(Br)(C3)C1)C2)Nc1cccnc1Cl	-4.8%
Cc1ccc(C)c2[nH]c(=O)c(CCNC(=O)c3cccs3)cc12	-10.9%
Cc1nnc(SCC2=C(C(=O)O)N3C(=O)C(NC(=O)Cn4nc(C(F)F)cc4C)C3SC2)s1 (stereo not drawn)	13.1%
